The text below walks through data of a collection of fitness landscapes (doi:10.1126/science.1257360).

The other results are listed elsewhere or left out. Bounds are passed on as bounds.

The chains are these.
B1: PhoQ; a variant is named by its letters at X, in order, P23837 (parent)
chain: MKKLLRLFFPLSLRVRFLLATAAVVLVLSLAYGMVALIGYSVSFDKTTFRLLRGESNLFYTLAKWENNKLHVELPENIDKQSPTMTLIYDENGQLLWAQRDVPWLMKMIQPDWLKSNGFHEIEADVNDTSLLLSGDHSIQQQLQEVREDDDDAEMTHSVAVNVYPATSRMPKLTIVVVDTIPVELKSSYMVWSWFIYVLSANLLLVIPLLWVAAWWSLRPIEALAKEVRELEEHNRELLNPATTRELTSLVRNLNRLLKSERERYDKYRTTLTDLTHSLKTPLXXLQXXLRSLRSEKMSVSDAEPVMLEQISRISQQIGYYLHRASMRGGTLLSRELHPVAPLLDNLTSALNKVYQRKGVNISLDISPEISFVGEQNDFVEVMGNVLDNACKYCLEFVEISARQTDEHLYIVVEDDGPGIPLSKREVIFDRGQRVDTLRPGQGVGLAVAREITEQYEGKIVAGESMLGGARMEVIFGRQHSAPKDE

This experiment covers variants of B1. The experiment is described as follows: enrichment ratio after two sorts for PhoP signalling (ratio (wild type AVST 3.29)); higher = more functional. As to conditions: with PhoP (E. coli).
GEHP: the enrichment ratio is no more than 0.25.

In the case of DYQM, the enrichment ratio was no more than 0.25.

For the variant DYRP, the enrichment ratio was no more than 0.25.

For RCKA, the enrichment ratio was no more than 0.25.

With ASRT, the enrichment ratio is no more than 0.25.

As to YNDP, the enrichment ratio is no more than 0.25.

With KPHG, the enrichment ratio was no more than 0.25.

For the variant ATRK, the enrichment ratio was no more than 0.25.

Turning to HTRY, the enrichment ratio was no more than 0.25.

With WPSP, the enrichment ratio was no more than 0.25.

For YQQD, the enrichment ratio was no more than 0.25.

Regarding YEVH, the enrichment ratio stood at 0.412.

For HIGP, the enrichment ratio is no more than 0.25.

For the variant ISAK, the enrichment ratio was no more than 0.25.

For YHGH, the enrichment ratio is no more than 0.25.

With ATRV, the enrichment ratio is no more than 0.25.

Take SWEC: the enrichment ratio is no more than 0.25.

On to GMCL, for which the enrichment ratio stood at 6.21.

On to PVCQ, for which the enrichment ratio is no more than 0.25.

For EKGF, the enrichment ratio is no more than 0.25.

As for LIRF, the enrichment ratio was no more than 0.25.

Turning to RINL, the enrichment ratio came to 0.723.

On to HAHH, for which the enrichment ratio is no more than 0.25.

With NRIN, the enrichment ratio is no more than 0.25.

For GGIF, the enrichment ratio is no more than 0.25.

As for GGST, the enrichment ratio stood at 4.04.

On to GSEG, for which the enrichment ratio is no more than 0.25.

As for KFKV, the enrichment ratio is no more than 0.25.

Take WFPA: the enrichment ratio is no more than 0.25.

Take HCKI: the enrichment ratio is no more than 0.25.

As to GPRT, the enrichment ratio was no more than 0.25.

In the case of QQVH, the enrichment ratio is no more than 0.25.

On to HNTF, for which the enrichment ratio is no more than 0.25.

For QPHN, the enrichment ratio was no more than 0.25.

For PYVM, the enrichment ratio was no more than 0.25.

Regarding KLHR, the enrichment ratio was no more than 0.25.

Take ENTS: the enrichment ratio was no more than 0.25.

Turning to QPYM, the enrichment ratio is no more than 0.25.

As to HKLS, the enrichment ratio was no more than 0.25.

For the variant RHGT, the enrichment ratio was no more than 0.25.

Consider MEHR, for which the enrichment ratio was no more than 0.25.

Turning to NLWY, the enrichment ratio was no more than 0.25.

Turning to RHEW, the enrichment ratio was no more than 0.25.

Consider DAQM, for which the enrichment ratio was no more than 0.25.

IICH: the enrichment ratio was no more than 0.25.

For the variant FKRS, the enrichment ratio was no more than 0.25.

For the variant TQKV, the enrichment ratio was no more than 0.25.

Consider YREK, for which the enrichment ratio is no more than 0.25.

Consider VHNF, for which the enrichment ratio was no more than 0.25.

On to FLGG, for which the enrichment ratio was no more than 0.25.

Regarding NCYH, the enrichment ratio is no more than 0.25.

LAYM: the enrichment ratio worked out at 4.09.

In the case of APRA, the enrichment ratio was no more than 0.25.

Consider MFAM, for which the enrichment ratio was no more than 0.25.

Consider KKCT, for which the enrichment ratio was no more than 0.25.

For the variant DWWS, the enrichment ratio was no more than 0.25.

On to YGLY, for which the enrichment ratio worked out at 0.346.

Consider SHRE, for which the enrichment ratio is no more than 0.25.

For FITV, the enrichment ratio is no more than 0.25.

For MNCN, the enrichment ratio is no more than 0.25.

For the variant NWLT, the enrichment ratio was no more than 0.25.

Consider IQFA, for which the enrichment ratio was no more than 0.25.

Consider YHAA, for which the enrichment ratio was no more than 0.25.

On to LNEV, for which the enrichment ratio was no more than 0.25.

In the case of WNLR, the enrichment ratio was no more than 0.25.

Take RNIT: the enrichment ratio was no more than 0.25.

As to RQDK, the enrichment ratio is no more than 0.25.

With LMWP, the enrichment ratio is no more than 0.25.

As for GSVF, the enrichment ratio stood at 0.933.

Regarding AWMR, the enrichment ratio was no more than 0.25.

As to IDMN, the enrichment ratio is no more than 0.25.

PTAF: the enrichment ratio was no more than 0.25.

Consider KNTN, for which the enrichment ratio is no more than 0.25.

TGSE: the enrichment ratio came to 7.38.

As to QEGV, the enrichment ratio is no more than 0.25.

With VNWV, the enrichment ratio was no more than 0.25.

On to KNSN, for which the enrichment ratio was no more than 0.25.

Consider TISW, for which the enrichment ratio stood at 2.99.

As to SDTR, the enrichment ratio is no more than 0.25.

With VNRT, the enrichment ratio is no more than 0.25.

NWPG: the enrichment ratio was no more than 0.25.

With DIVM, the enrichment ratio is no more than 0.25.

YGNL: the enrichment ratio is no more than 0.25.

In the case of NAFT, the enrichment ratio was no more than 0.25.

Take NCTM: the enrichment ratio was no more than 0.25.

For the variant NPAC, the enrichment ratio was no more than 0.25.

Regarding YNDM, the enrichment ratio is no more than 0.25.

YCYG: the enrichment ratio is no more than 0.25.

Consider PIPS, for which the enrichment ratio is no more than 0.25.

As for AWTT, the enrichment ratio is no more than 0.25.

Take VFQM: the enrichment ratio was no more than 0.25.

For WADF, the enrichment ratio was no more than 0.25.

TVPR: the enrichment ratio was no more than 0.25.

As for PAMR, the enrichment ratio was no more than 0.25.

Consider SIKK, for which the enrichment ratio is no more than 0.25.

As to THAF, the enrichment ratio is no more than 0.25.

For the variant RAYT, the enrichment ratio is no more than 0.25.

For HLDQ, the enrichment ratio was no more than 0.25.

Consider HFFE, for which the enrichment ratio was no more than 0.25.

Take HCRW: the enrichment ratio was no more than 0.25.

Regarding IPEH, the enrichment ratio was no more than 0.25.

For the variant YDKM, the enrichment ratio was no more than 0.25.

PRNW: the enrichment ratio is no more than 0.25.

On to EMRI, for which the enrichment ratio was no more than 0.25.

Consider IMVP, for which the enrichment ratio is no more than 0.25.

YFYE: the enrichment ratio is no more than 0.25.

In the case of PFIW, the enrichment ratio was no more than 0.25.

Take SYSG: the enrichment ratio came out at 1.01.

As to SQMG, the enrichment ratio came to 20.8.

For the variant MQRL, the enrichment ratio is no more than 0.25.

With RIMF, the enrichment ratio is no more than 0.25.

Turning to YYSA, the enrichment ratio is no more than 0.25.

As to KMFI, the enrichment ratio is no more than 0.25.

On to PMKN, for which the enrichment ratio is no more than 0.25.

For IHGT, the enrichment ratio was no more than 0.25.

For the variant YQVA, the enrichment ratio was no more than 0.25.

Consider WYVD, for which the enrichment ratio is no more than 0.25.

As to TTCT, the enrichment ratio stood at 12.8.

With TQVD, the enrichment ratio was no more than 0.25.

Turning to NWIH, the enrichment ratio is no more than 0.25.

Regarding ELKI, the enrichment ratio is no more than 0.25.

For NGNW, the enrichment ratio is no more than 0.25.

As to YKEV, the enrichment ratio was no more than 0.25.

Consider WQST, for which the enrichment ratio was no more than 0.25.

Consider AIPM, for which the enrichment ratio was determined as 7.17.

EVDR: the enrichment ratio is no more than 0.25.

Take YRTN: the enrichment ratio is no more than 0.25.

Consider WNCM, for which the enrichment ratio was no more than 0.25.

For the variant NSLM, the enrichment ratio came out at 7.81.

With DCTT, the enrichment ratio is no more than 0.25.

As for MTLK, the enrichment ratio was no more than 0.25.

Regarding NRVL, the enrichment ratio was no more than 0.25.

DQLV: the enrichment ratio was no more than 0.25.

Turning to EYDP, the enrichment ratio was no more than 0.25.

Take DFRI: the enrichment ratio was no more than 0.25.

For ALVA, the enrichment ratio is no more than 0.25.

For the variant QRVM, the enrichment ratio was no more than 0.25.

In the case of AELE, the enrichment ratio came out at 4.35.

For the variant VSCN, the enrichment ratio was no more than 0.25.

Take IAAA: the enrichment ratio is no more than 0.25.

For the variant YVFQ, the enrichment ratio was no more than 0.25.

As to TMGN, the enrichment ratio was determined as 2.42.

Take SIFK: the enrichment ratio worked out at 0.535.

As to SCIV, the enrichment ratio was 1.12.

On to GKGN, for which the enrichment ratio was no more than 0.25.

With LADM, the enrichment ratio was no more than 0.25.

Turning to THCE, the enrichment ratio was no more than 0.25.

On to AMHI, for which the enrichment ratio was no more than 0.25.

For the variant DTFR, the enrichment ratio is no more than 0.25.

As for YHIY, the enrichment ratio was no more than 0.25.

For DVSQ, the enrichment ratio was no more than 0.25.

With EDIV, the enrichment ratio is no more than 0.25.

Turning to KQTM, the enrichment ratio was no more than 0.25.
